# Measured values taken from the supplement of paper PMC8728848.
# This is one part of the list.
# B1: Annexin-A1 (Mus musculus), P10107 (protein)
# chain: MAMVSEFLKQARFLENQEQEYVQAVKSYKGGPGSAVSPYPSFNVSSDVAALHKAIMVKGVDEATIIDILTKRTNAQRQQIKAAYLQENGKPLDEVLRKALTGHLEEVVLAMLKTPAQFDADELRGAMKGLGTDEDTLIEILTTRSNEQIREINRVYREELKRDLAKDITSDTSGDFRKALLALAKGDRCQDLSVNQDLADTDARALYEAGERRKGTDVNVFTTILTSRSFPHLRRVFQNYGKYSQHDMNKALDLELKGDIEKCLTTIVKCATSTPAFFAEKLYEAMKGAGTRHKALIRIMVSRSEIDMNEIKVFYQKKYGISLCQAILDETKGDYEKILVALCGGN
# Assays:
# Assay in all cases: glycan array binding signal (z-score within array); higher = stronger binding
# Conditions in all cases: glycan notation: IUPAC condensed, linker removed
# [1] = molecular target: Gal(b1-3)[Neu5Ac(a2-6)]GlcNAc(a1-4)Gal(b1-4)Glc
# How it was run: (§1)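 Glycan array binding is given as a within-array Z-score, which can be read as non-binding when negative. The arrays, 3228 of them, came from the Consortium for Functional Glycomics database and were retained only where the protein sequence was available. Z-scores were averaged across arrays of the same protein sequence at different concentrations or buffers and across linkers.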
# [2] = molecular target: Gal(b1-3)[Neu5Ac(b2-6)]GlcNAc
# How it was run: as §1
# [3] = molecular target: Gal(b1-4)GalNAc(a1-3)[Fuc(a1-2)]Gal(b1-4)GlcNAc
# How it was run: as §1
# [4] = molecular target: Gal(b1-4)GalNAc(b1-3)[Fuc(a1-2)]Gal(b1-4)GlcNAc
# How it was run: as §1
# Gal(b1-4)Glc = molecular target: Gal(b1-4)Glc
# How it was run: as §1
# Gal(b1-4)Glc6S = molecular target: Gal(b1-4)Glc6S
# How it was run: as §1
# Gal(b1-4)GlcNAc = molecular target: Gal(b1-4)GlcNAc
# How it was run: as §1
# [5] = molecular target: Gal(b1-4)GlcNAc(b1-2)Man(a1-3)[Gal(b1-4)GlcNAc(b1-2)Man(a1-6)]Man(b1-4)GlcNAc(b1-4)GlcNAc
# How it was run: as §1
# [6] = molecular target: Gal(b1-4)GlcNAc(b1-3)Gal(b1-3)GlcNAc
# How it was run: as §1
# [7] = molecular target: Gal(b1-4)GlcNAc(b1-3)Gal(b1-4)Glc
# How it was run: as §1
# [8] = molecular target: Gal(b1-4)GlcNAc(b1-3)Gal(b1-4)GlcNAc
# How it was run: as §1
# [9] = molecular target: Gal(b1-4)GlcNAc(b1-3)Gal(b1-4)GlcNAc(b1-3)Gal(b1-4)GlcNAc
# How it was run: as §1
# [10] = molecular target: Gal(b1-4)GlcNAc(b1-3)Gal(b1-4)[Fuc(a1-3)]GlcNAc(b1-3)Gal(b1-4)[Fuc(a1-3)]GlcNAc
# How it was run: as §1
# [11] = molecular target: Gal(b1-4)GlcNAc(b1-3)GalNAc
# How it was run: as §1
# [12] = molecular target: Gal(b1-4)GlcNAc(b1-3)[Gal(b1-4)GlcNAc(b1-6)]GalNAc
# How it was run: as §1
# [13] = molecular target: Gal(b1-4)GlcNAc(b1-6)GalNAc
# How it was run: as §1
# [14] = molecular target: Gal(b1-4)GlcNAc(b1-6)[Gal(b1-3)]GalNAc
# How it was run: as §1
# [15] = molecular target: Gal(b1-4)GlcNAc(b1-6)[Gal(b1-3)]GlcNAc
# How it was run: as §1
# Gal3S(b1-3)GalNAc = molecular target: Gal3S(b1-3)GalNAc
# How it was run: as §1
# Gal3S(b1-3)GlcNAc = molecular target: Gal3S(b1-3)GlcNAc
# How it was run: as §1
# [16] = molecular target: Gal3S(b1-3)[Fuc(a1-4)]GlcNAc
# How it was run: as §1
# Gal3S(b1-4)Glc = molecular target: Gal3S(b1-4)Glc
# How it was run: as §1
# Gal3S(b1-4)Glc6S = molecular target: Gal3S(b1-4)Glc6S
# How it was run: as §1
# Gal3S(b1-4)GlcNAc = molecular target: Gal3S(b1-4)GlcNAc
# How it was run: as §1
# Gal3S(b1-4)GlcNAc6S = molecular target: Gal3S(b1-4)GlcNAc6S
# How it was run: as §1
# Gal3S6S(b1-4)GlcNAc = molecular target: Gal3S6S(b1-4)GlcNAc
# How it was run: as §1
# Gal3S6S(b1-4)GlcNAc6S = molecular target: Gal3S6S(b1-4)GlcNAc6S
# How it was run: as §1
# Gal4S(b1-4)GlcNAc = molecular target: Gal4S(b1-4)GlcNAc
# How it was run: as §1
# Gal4S6S(b1-4)GlcNAc = molecular target: Gal4S6S(b1-4)GlcNAc
# How it was run: as §1
# Gal6S(b1-4)Glc = molecular target: Gal6S(b1-4)Glc
# How it was run: as §1
# Gal6S(b1-4)Glc6S = molecular target: Gal6S(b1-4)Glc6S
# How it was run: as §1
# Gal6S(b1-4)GlcNAc = molecular target: Gal6S(b1-4)GlcNAc
# How it was run: as §1
# GalNAc(a1-3)Gal = molecular target: GalNAc(a1-3)Gal
# How it was run: as §1
# GalNAc(a1-3)GalNAc = molecular target: GalNAc(a1-3)GalNAc
# How it was run: as §1
# [17] = molecular target: GalNAc(b1-3)Gal(a1-4)Gal(b1-4)GlcNAc
# How it was run: as §1
# GalNAc(b1-4)GlcNAc = molecular target: GalNAc(b1-4)GlcNAc
# How it was run: as §1
# Glc(a1-4)Glc = molecular target: Glc(a1-4)Glc
# How it was run: as §1
# Glc(a1-6)Glc(a1-6)Glc = molecular target: Glc(a1-6)Glc(a1-6)Glc
# How it was run: as §1
# Glc(b1-4)Glc = molecular target: Glc(b1-4)Glc
# How it was run: as §1
# Glc(b1-6)Glc = molecular target: Glc(b1-6)Glc
# How it was run: as §1
# GlcA(b1-3)Gal = molecular target: GlcA(b1-3)Gal
# How it was run: as §1
# GlcA(b1-6)Gal = molecular target: GlcA(b1-6)Gal
# How it was run: as §1
# [18] = molecular target: GlcNAc(a1-3)Gal(b1-4)GlcNAc
# How it was run: as §1
# [19] = molecular target: GlcNAc(a1-6)Gal(b1-4)GlcNAc
# How it was run: as §1
# [20] = molecular target: GlcNAc(b1-2)Gal(b1-3)GlcNAc
# How it was run: as §1
binder,measurement,setting,value
B1,glycan array binding signal (z-score),[1],-0.702
same,glycan array binding signal (z-score),[2],-0.133
same,glycan array binding signal (z-score),[3],-0.694
same,glycan array binding signal (z-score),[4],-0.677
same,glycan array binding signal (z-score),Gal(b1-4)Glc,-0.088
same,glycan array binding signal (z-score),Gal(b1-4)Glc6S,0.533
same,glycan array binding signal (z-score),Gal(b1-4)GlcNAc,-0.135
same,glycan array binding signal (z-score),[5],-0.514
same,glycan array binding signal (z-score),[6],-0.371
same,glycan array binding signal (z-score),[7],-0.544
same,glycan array binding signal (z-score),[8],-0.621
same,glycan array binding signal (z-score),[9],-0.691
same,glycan array binding signal (z-score),[10],0.126
same,glycan array binding signal (z-score),[11],-0.476
same,glycan array binding signal (z-score),[12],-0.226
same,glycan array binding signal (z-score),[13],-0.65
same,glycan array binding signal (z-score),[14],-0.512
same,glycan array binding signal (z-score),[15],-0.749
same,glycan array binding signal (z-score),Gal3S(b1-3)GalNAc,-0.323
same,glycan array binding signal (z-score),Gal3S(b1-3)GlcNAc,0.176
same,glycan array binding signal (z-score),[16],-0.017
same,glycan array binding signal (z-score),Gal3S(b1-4)Glc,1.13
same,glycan array binding signal (z-score),Gal3S(b1-4)Glc6S,3.21
same,glycan array binding signal (z-score),Gal3S(b1-4)GlcNAc,0.028
same,glycan array binding signal (z-score),Gal3S(b1-4)GlcNAc6S,1.83
same,glycan array binding signal (z-score),Gal3S6S(b1-4)GlcNAc,1.03
same,glycan array binding signal (z-score),Gal3S6S(b1-4)GlcNAc6S,7.38
same,glycan array binding signal (z-score),Gal4S(b1-4)GlcNAc,-0.042
same,glycan array binding signal (z-score),Gal4S6S(b1-4)GlcNAc,1.13
same,glycan array binding signal (z-score),Gal6S(b1-4)Glc,0.485
same,glycan array binding signal (z-score),Gal6S(b1-4)Glc6S,3.55
same,glycan array binding signal (z-score),Gal6S(b1-4)GlcNAc,-0.12
same,glycan array binding signal (z-score),GalNAc(a1-3)Gal,-0.428
same,glycan array binding signal (z-score),GalNAc(a1-3)GalNAc,-0.443
same,glycan array binding signal (z-score),[17],-0.221
same,glycan array binding signal (z-score),GalNAc(b1-4)GlcNAc,-0.405
same,glycan array binding signal (z-score),Glc(a1-4)Glc,-0.106
same,glycan array binding signal (z-score),Glc(a1-6)Glc(a1-6)Glc,-0.577
same,glycan array binding signal (z-score),Glc(b1-4)Glc,0.223
same,glycan array binding signal (z-score),Glc(b1-6)Glc,-0.231
same,glycan array binding signal (z-score),GlcA(b1-3)Gal,0.114
same,glycan array binding signal (z-score),GlcA(b1-6)Gal,0.482
same,glycan array binding signal (z-score),[18],-0.417
same,glycan array binding signal (z-score),[19],-0.738
same,glycan array binding signal (z-score),[20],-0.395
